From PubChem BioAssay AID686979 (National Center for Advancing Translational Sciences (NCATS), 2013)
Hit rate of the full screen: of about 420,000 compounds, about 50,000 (12%) were called active. Inconclusive results, whose numbers are uncertain, are shown with a selection of clear calls. Calls follow the shape of the dose curve; as a rule, active = well fitted inhibition curve with a large enough effect; inconclusive = small, poorly fitted or top-dose-only effect; inactive = flat fitted curve, though single readings scatter. No potency is given beside an inconclusive call; the fits are too rough.

Test: qHTS for Inhibitors of human tyrosyl-DNA phosphodiesterase 1 (TDP1): qHTS in cells in presence of CPT; also: nearly all actives have a fitted effect of over 55% in size
Settings: chicken DT40 Tdp1-/-;hTDP1 cells + 20 nM CPT, ATP luminescence, 48 h; activity change, negative = growth inhibition: at 46.2 µM (top of the series)
Method in brief: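 Chicken DT40 Tdp1-/- cells complemented with human TDP1, 400 cells/well, exposed to compounds plus 20 nM camptothecin for at least 48 h at 37 C; viability read as ATP content by CellTiter-Glo luminescence.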
% is scaled to controls: 0 for no effect and ±100 for the full control effect; potency is read from the fitted curve at half-maximal effect; tags tell the direction and shape of the fitted curve.

SMILES	Potency	activity change, negative = growth inhibition
O=C1N(c2ccccc2)C(c2ccccc2)C12CCCCC2 (stereo unspecified)	inconclusive [inhibitor, single point]	
CC(=O)Oc1cccc2c1C(=O)C1CC=CC(OC(C)=O)C1C2=O (stereo unspecified)	inconclusive [inhibitor, single point]	
Cc1cccc(NC(=O)c2ccc3oc(=O)c(S(=O)(=O)c4ccc(F)cc4)cc3c2)c1C		inactive: -13.3%
CCOc1ccc(CNc2cc(C)nc3nc(-c4cccc(C)c4)nn23)cc1OC	inconclusive [inhibitor, single point]	
Cc1cccc(N2CN=c3s/c(=C\c4ccccn4)c(=O)n3C2)c1		inactive: -13.7%
CCc1ccccc1N(C)C(=O)c1nn(-c2ccc(OC)cc2)c(=O)c2c1c1ccccc1n2C	inconclusive [inhibitor, partial curve]	
O=C(O)COc1ccc(/C=C/c2nc(-c3ccccc3O)n[nH]2)cc1		inactive: 2.18%
Cn1c(=O)c2[nH]c(NN=Cc3ccc(Br)cc3)nc2n(C)c1=O	inconclusive [inhibitor, partial curve]	
Clc1ccc(-c2nc3ccc(Br)cn3c2Cc2ccccc2)cc1	active: 23.1 µM	
CCCC(C)C(=O)OCC(=O)Nc1c(Br)cc(C)cc1Br (stereo unspecified)		inactive: 3.63%
CC1CCc2c(sc3nnn(Cc4ccccc4Cl)c(=O)c23)C1 (stereo unspecified)	inconclusive [inhibitor, single point]	
O=C(O)C1C2C=CC(C2)C1C(=O)Nc1ccc(Cl)c(Cl)c1 (stereo unspecified)	inconclusive [inhibitor, single point]	
CCOc1ccc(N2C(=O)/C(=C\c3ccc(O)c(OC)c3)S(=O)(=O)C2c2cccc([N+](=O)[O-])c2)cc1 (stereo unspecified)	active: 18.4 µM	
CCOc1ccc(C(=O)CN2C(=O)NC3(CCCCCC3)C2=O)cc1	inconclusive [inhibitor, single point]	
CCC(C)[C@H](NC(=O)NCc1ccc(Cl)cc1)C(=O)OC (stereo partly specified)		inactive: -29.2%
COc1ccccc1OCc1nc2ccccc2n1Cc1ccccc1	inconclusive [inhibitor, single point]	
c1csc(C2=NNC(=NC3CCCCC3)SC2)c1	inconclusive [inhibitor, single point]	
C=CCN(CC=C)c1ncnc2[nH]ncc12	inconclusive [inhibitor, partial curve]	
CCCNC(=O)C1(C)CCCN(C(=O)c2oc3ccccc3c2C)C1 (stereo unspecified)	inconclusive [inhibitor, single point]	
CCC(C(=O)O)N1C(=O)/C(=C/C(C)=C/c2ccccc2)SC1=S (stereo unspecified)		inactive: 5.43%
CCOc1ccccc1C1C(C(=O)Nc2ccccc2)=C(C)Nc2nc(-c3ccccc3)nn21 (stereo unspecified)	inconclusive [inhibitor, single point]	
CCOc1ccccc1CNCc1c(C(=O)O)n(Cc2ccccc2)c2cc(OC)ccc12	inconclusive [inhibitor, partial curve]	
Cc1ccc(S(=O)(=O)Nc2ccc(-c3ccc(N4CCCCCC4)nn3)cc2)c(C)c1	inconclusive [inhibitor, single point]	
CCc1cc(CNC(=O)CC2C(=O)NCCN2Cc2ccc(-c3ccccc3)cc2)on1 (stereo unspecified)		inactive: -13.9%

SMILES	Potency	activity change, negative = growth inhibition
COc1ccc(-n2c(SCc3ccc([N+](=O)[O-])cc3)nnc2-c2ccc(C)cc2)cc1	inconclusive [inhibitor, single point]	
CCOc1ccccc1Oc1ncnc2c1oc1ccccc12	active: 13 µM	
CC(C)c1ccc(Nc2nc(CC(=O)O)cs2)cc1		inactive: -27.4%
N#Cc1ccccc1-n1c(N)c(C(=O)N2CCCC2)sc1=S	inconclusive [inhibitor, partial curve]	
COc1ccc(N2CCN(C(=O)c3cnc(N4CCOCC4)c4ccccc34)CC2)cc1	inconclusive [inhibitor, partial curve]	
COc1ccc([C@H]2CC(=O)C=C(c3ccccc3)C2)cc1OC	inconclusive [inhibitor, single point]	
CCOC(=O)[C@H]1[C@H]2COc3ccc(OC)cc3[C@@H]2N2C(=O)c3cc(C)ccc3NC(=O)[C@@]12C		inactive: -29.6%
C=C(C)Cn1c(N2CCN(c3ccc(OC)cc3)CC2)nc2c1c(=O)n(C)c(=O)n2C	active: 16.4 µM	
COc1ccc(Cl)cc1Cn1c(C)c(C(=O)NCc2cccc(C(F)(F)F)c2)sc1=O	inconclusive [inhibitor, single point]	
COC(=O)[C@]12CCCCC=C1N(CCC1=CCCCC1)C(=O)[C@H](CC(=O)NCc1ccccc1)C2	inconclusive [inhibitor, single point]	
Cc1ccc(NCc2cc3cc4c(cc3n(CC(=O)Nc3ccc(C)cc3)c2=O)OCCO4)cc1	active: 7.31 µM	
Cc1ccnc(NC(=O)c2cc([N+](=O)[O-])cc([N+](=O)[O-])c2)c1		inactive: -26.6%
CCC1(c2ccc(F)cc2)NC(=O)N(CC(=O)N2CCN(C(=O)c3cccs3)CC2)C1=O (stereo unspecified)	inconclusive [inhibitor, single point]	
Cc1ccc(-c2nnc3c4ccccc4c(-c4ccccc4)nn23)cc1		inactive: 1.8%
CCOC(=O)c1cnc2ccc(OCC)cc2c1N1CCN(c2ccccc2)CC1	active: 20.6 µM	
C[C@@H](C(=O)N1CCN(Cc2ccc3c(c2)OCO3)CC1)n1nnc2ccccc2c1=O	inconclusive [inhibitor, partial curve]	
O=C(COC(=O)c1cccs1)Nc1nnc(-c2ccccc2)o1	inconclusive [inhibitor, single point]	
CCCN(CCC)CC(O)Cn1c2ccccc2c2ccccc21 (stereo unspecified)	inconclusive [inhibitor, single point]	
CCc1ccc(CNC(=O)c2ccc(NC(=O)C3=CSCCO3)cc2)cc1		inactive: -1.56%
COC(=O)[C@]1(Cc2ccccc2)N[C@H](CN(C)C(=O)Nc2ccc(Cl)cc2)[C@@H]2C(=O)N(C)C(=O)[C@@H]21	inconclusive [inhibitor, single point]	
N=c1n(CC(=O)c2ccc(Br)s2)c2ccccc2n1Cc1ccccc1	active: 5.17 µM	
COc1ccc(NC(=O)c2c(C)noc2-c2snnc2C)cc1	inconclusive [inhibitor, single point]	
CCOC(=O)c1cnc2c(ccc3ccccc32)c1N		inactive: -14.1%
Cc1cc2nc(-c3ccco3)c(Cc3ccccc3C(F)(F)F)n2c(C)c1Br	inconclusive [inhibitor, single point]	

SMILES	Potency	activity change, negative = growth inhibition
COc1ccc(NC(=O)c2sc3nc(C)nc(N4CCOCC4)c3c2C)c(OC)c1		inactive: -2.79%
O=C(Cc1c[nH]c2ccccc12)NCc1ccc(Cl)cc1		inactive: -10.5%
COc1ccc(NC(=O)CSCc2ccccc2C)cc1	inconclusive [inhibitor, single point]	
COC(C/C=C/[C@H](O)[C@@H](C)OCc1ccccc1)OC		inactive: -2.51%
COc1ccc(C2=CC(c3c(C)nn(-c4ccccc4)c3Cl)n3nnnc3N2)cc1OC (stereo unspecified)	inconclusive [inhibitor, single point]	
CC(C)CN(CC(C)C)c1ccc(/C=C/c2ccnc3ccccc23)cc1	active: 12.6 µM	
Cc1cc(OCC(O)CN2CCOCC2)cc(C)c1Cl (stereo unspecified)		inactive: -7.57%
O=C(OCC(=O)N(Cc1ccccc1)Cc1ccccc1)c1ccccc1NCCO	inconclusive [inhibitor, single point]	
COc1ccc(C#Cc2c(C=O)n(C)c3ccccc23)cc1	inconclusive [inhibitor, single point]	
CC(C)(C)c1csc(NC(=O)CCc2ccccc2)n1	inconclusive [inhibitor, single point]	
CCOC(=O)COc1ccc(S(=O)(=O)Nc2cccc(SC)c2)cc1		inconclusive: -28.8% [inhibitor]
CCOc1ncccc1C(=O)Nc1ccc(Cl)cc1	inconclusive [inhibitor, single point]	
CC/C(C)=N/Nc1nc2c(c(=O)[nH]c(=O)n2C)n1CCc1ccccc1	inconclusive [inhibitor, single point]	
Cc1ccc(N2C(=O)c3ccccc3C2C(=O)c2ccc(C)c(C)c2O)cc1 (stereo unspecified)	inconclusive [inhibitor, single point]	
C=CC1(C)CN(Cc2ccco2)S(=O)(=O)c2c(F)cccc2O1 (stereo unspecified)	active: 18.4 µM	
Cc1ccc(S(=O)(=O)c2cn(Cc3ccccc3)c3cc(N4CCCC4)c(F)cc3c2=O)c(C)c1	active: 20.6 µM	
CC1=CC(C)C2(COC(c3ccc[n+](C)c3)OC2)C(C)C1 (stereo unspecified)	active: 5.8 µM	
Cc1ccc2nc(NC(=O)CCCc3nc4ccccc4s3)sc2c1	inconclusive [inhibitor, single point]	
CCc1cccc(NC(=O)c2cc3c(=O)oc4ccc(C)cc4c3s2)c1	inconclusive [inhibitor, full curve]	
COc1cc([C@@H]2CC=C(C(=O)O)[C@H](c3ccc(F)cc3)N2S(=O)(=O)c2ccc(C)cc2)cc(OC)c1OC		inactive: -8.49%
CCN(CC)CCOc1nnc(-c2ccc(OC)cc2)c2ccccc12	inconclusive [inhibitor, single point]	
COc1ccc(OC)c([C@@H]2Nc3ccc(C(=O)O)cc3[C@@H]3C=CC[C@@H]32)c1	inconclusive [inhibitor, single point]	
COc1ccc(/C=C2\SC(=S)N(CCC(=O)NCCCn3ccnc3)C2=O)cc1	inconclusive [inhibitor, single point]	
